# Measurements published in PubChem BioAssay AID504832 (National Center for Advancing Translational Sciences (NCATS), 2011).
# About 18,000 (5.8%) of roughly 310,000 compounds were called active. This list was built around the results that the source calls inconclusive (neither active nor inactive); the mix of calls is not that of the screen. Calls come from the whole dose curve; as a rule, active = well fitted inhibition curve with a large enough effect; inconclusive = small, poorly fitted or top-dose-only effect, or another doubt; inactive = no such curve, though single readings can be large or run the other way. No potency is given beside an inconclusive call; the fits are too rough.
# Test: Primary qHTS for delayed death inhibitors of the malarial parasite plastid, 48 hour incubation
# Conditions: P. falciparum luciferase growth in erythrocytes; series mostly up to 28.7 µM
# Method in brief: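 Growth was read as firefly luciferase luminescence after a 48 h, 37 C, 5% CO2 exposure of compounds to reporter-bearing P. falciparum cultures (0.1% parasitemia, 2% hematocrit final) in Albumax-supplemented RPMI 1640.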
# Potency is the fitted concentration of half-maximal effect; tags give direction and shape of the fitted curve.
row,SMILES,Potency
1,Cc1ccccc1C(=O)Nc1ccc(-c2nc3ccc(C(=O)c4ccccc4)cc3[nH]2)cc1,active: 8.28 µM
2,Cc1[nH]c2ccccc2c1C(=O)CN1CCCC(C)C1 (stereo not drawn),inactive
3,NC(=O)CSc1ncc(-c2ccc([N+](=O)[O-])cc2)[nH]1,inactive
4,CCOc1ccc(NC(=O)CN(C)CC(=O)Nc2cccc(Cl)c2C)cc1OCC,"inconclusive [inhibitor, partial curve, poor fit]"
5,Cc1ccc(OCC(O)CN2CCN(CC(O)COC(C)C)CC2)c(C(C)(C)C)c1 (stereo not drawn),"inconclusive [inhibitor, single point]"
6,CCN(CC)S(=O)(=O)c1ccc2c(c1)nc(CCC(=O)Nc1ccc3c(c1)OCO3)n2C,"inconclusive [inhibitor, single point]"
7,Cc1ccc(S(=O)(=O)N2CCN(C(=O)CSc3ncn[nH]3)CC2)c(C)c1,inactive
8,O=C(NNc1nc2ccc(Cl)cc2s1)c1cc(-c2cccs2)nc2ccccc12,"inconclusive [inhibitor, full curve]"
9,CCCC(=O)Nc1ccc(NC(=O)c2cccc(OC)c2)nc1,inactive
10,CN1C(=S)N2CCCN2C1c1ccccc1 (stereo not drawn),"inconclusive [inhibitor, single point]"
11,CCc1cccc(NC(=O)CCNS(=O)(=O)c2cc(Br)cnc2N)c1,active: 13.1 µM
12,COc1ccc(C)cc1S(=O)(=O)N(CC(=O)Nc1cccc([N+](=O)[O-])c1)c1ccc(C)c(C)c1,active: 13.1 µM
13,O=C(Nc1nc(-c2ccccc2)cs1)c1ccccc1NS(=O)(=O)c1ccc(F)cc1,active: 13.1 µM
14,Cc1ccc(S(=O)(=O)N(CC(=O)NCCSc2ccccn2)c2ccc(C)c(C)c2)cc1,"inconclusive [inhibitor, partial curve]"
15,OCC1(CCc2ccccc2)CCN(Cc2cnc(N3CCCC3)s2)CC1,"inconclusive [inhibitor, single point]"
16,CCOc1nc(C)ccc1-c1noc(C)n1,inactive
17,Cc1ccc(-n2nc(C(=O)NN)c(C)c(C#N)c2=O)cc1Cl,"inconclusive [inhibitor, single point]"
18,O=C(/C=C/c1ccccc1)NC(=S)Nc1ncccn1,inactive
19,CS(=O)(=O)OCCCCOS(C)(=O)=O,inactive
20,Cc1ccc(NC(=O)CSCC(=O)Nc2cc(C(F)(F)F)ccc2N2CCOCC2)cc1,"inconclusive [inhibitor, single point]"
21,O=C(CNCc1ccccc1)Nc1ccc(Oc2ccccc2)cc1,inactive
22,COc1ccc(-c2cc(-c3cc(C)ccc3O)[nH]n2)cc1,"inconclusive [inhibitor, partial curve, poor fit]"
23,C=CCNC(=O)NC(=O)COC(=O)COc1ccc(Br)cc1F,"inconclusive [inhibitor, partial curve, poor fit]"
24,O=C(CSc1nc2ccccc2o1)Nc1ccccc1N1CCCCCC1,"inconclusive [inhibitor, partial curve, poor fit]"

row,SMILES,Potency
1,CCOC(=O)c1c(C)n(C)c2ccc(O)c(CN(C)C)c12,inactive
2,O=C(CNCCO)N1CCc2ccccc21,inactive
3,CCCCN(CCCC)S(=O)(=O)c1ccc(C(=O)Nc2nnc(COC)o2)cc1,"inconclusive [inhibitor, single point]"
4,CCOC(=O)[C@@H]1[C@H]2COc3ccccc3[C@@H]2N2C(=O)N(c3cccc(Cl)c3)C(=O)[C@]12C,"inconclusive [inhibitor, single point]"
5,CC1CC(C)CN(S(=O)(=O)c2ccc(C(=O)NCc3ccco3)cc2)C1 (stereo not drawn),"inconclusive [inhibitor, full curve, poor fit]"
6,C/C(=N\Nc1ccc(C(=O)O)cc1)c1ccc2c(c1)Nc1ccccc1S2,"inconclusive [inhibitor, single point]"
7,COc1cccc(-c2c(C(=O)N/N=C(\C)c3cccs3)nnn2-c2nonc2N)c1,inactive
8,CCOC(=O)NN1C(=O)c2ccccc2NC12CCCC2,inactive
9,CCCCn1c(=O)[nH]c(=O)c2c1nc(-c1ccc(OCCC)c(OCC)c1)n2CCOC,active: 9.28 µM
10,O=C(Nc1cccc(OCC(=O)N2CCOCC2)c1)c1cccc(Cl)c1,inactive
11,O=C(Nc1ccc(-c2n[nH]c(=S)o2)cc1)c1ccccc1Cl,inactive
12,Cc1ccc(C(=O)OCC(=O)N(C)C2CCS(=O)(=O)C2)cc1[N+](=O)[O-] (stereo not drawn),inactive
13,Cc1nnc(SCc2ccccc2Cl)n(N)c1=O,"inconclusive [inhibitor, single point]"
14,COCCC(=O)N1CCC(Oc2ccc(C(=O)NCc3nccn3C)cc2)CC1,inactive
15,CN(C(=O)COc1cc(=O)n(C)c2ccccc12)c1ccc(Br)cc1,"inconclusive [inhibitor, single point]"
16,CCOc1cc(/C=C2\CCCC(C(=O)C(F)(F)F)=C2O)ccc1O,"inconclusive [inhibitor, single point]"
17,Cc1nonc1OCCNCCNc1ccc([N+](=O)[O-])cc1Cl,"inconclusive [inhibitor, single point]"
18,C=CCc1cccc(CNn2cnnc2)c1O,inactive
19,Cc1ncc(CO)c(/C=N/NC(=S)Nc2ccc(C(C)C)cc2)c1O,"inconclusive [inhibitor, partial curve]"
20,CC1=NN(c2nc(-c3ccccc3)cs2)C(=O)C1,"inconclusive [inhibitor, single point]"
21,COc1ccc(N(C(=O)c2cccnc2)S(=O)(=O)c2ccc3c4c(cccc24)C(=O)N3C)cc1,"inconclusive [inhibitor, single point]"
22,CCOC(=O)C1CCCN(C(=O)COc2ccc(N(C)S(=O)(=O)c3ccc(C)cc3)cc2)C1 (stereo not drawn),"inconclusive [inhibitor, single point]"
23,NS(=O)(=O)c1ccc(CCNC(=O)CNC(=O)C2CCCCC2)cc1,inactive
24,CCOc1ccccc1N1CCN(C(=O)c2ccc3[nH]c(C)c(C)c3c2)CC1,inactive
